# Numbered stars: 1 amine (or outer) side, 2 acyl side, 3 side chain; on linkers, the order of the positions; unused ones are H or OH. Bridge positions count the residues as written; N and C are the ends. Peptide text beside a SMILES is read from it. I, II: the chains in the order shown. Rhodamine110 = O=C1OC2(c3ccc(N[*:1])cc3Oc3cc(N[*:2])ccc32)c2ccccc21
# Assays:
# [1] = system: LYMPHOCYTES; assay: Disease to normal ratio of enzyme activity, lymphocytes (Table 5); format: cell-based, human
# From the text: (§1) A normal in house adult donor pool was drawn, recording sex and determining that no known disease state was present at the time of sample draw. Criteria for rejecting samples included patients under medication, patients with infection or inflammation of any type, colds and flu as well as any known medical illness such as cancer, heart ailment and high blood pressure. A donor list of 75 patients has been developed and a mean and 2 sd range established. A subgroup of "super normals" was developed from this list by examining the 75 patients to determine which group falls closest to the mean for all enzymes in all cell types tested. These patients were used as the "wellness index" or best group of "normalcy" patients. If a study required the use of children or newborns then this same format was used to develop a data base for these age groups.
# [2] = system: MONOCYTES; assay: Disease to normal ratio of enzyme activity, monocytes (Table 5); format: cell-based, human
# From the text: as §1
Structure (SMILES),Inflam Dis Lymphs [1],Inflam. Dis. Monos [2]
"C[C@H](N)C(=O)Nc1ccc2c(c1)Oc1cc(NC(=O)[C@H](C)N)ccc1C21OC(=O)c2ccccc21 [ALA, (Ala)2 Rho 110]",1.07,0.94
"O=C1OC2(c3ccc(OP(=O)(O)O)cc3Oc3cc(OP(=O)(O)O)ccc32)c2ccccc21 [DPO4, (PO4)2 fluorescein]",0.45,0.28
"CC(=O)Oc1ccc2c(c1)Oc1cc(OC(C)=O)ccc1C21OC(=O)c2ccccc21 [FDA, fluorescein diacetate, reference compound]",0.80,0.47
"CC(=O)Oc1ccc2c(c1)Oc1cc(OC(C)=O)ccc1C21OC(=O)c2ccccc21 [FDA-NAF, reference compound]",0.16,0.13
"C[C@H](NC(=O)CNC(=O)[C@H](Cc1ccccc1)NC(=O)CN)C(=O)Nc1ccc2c(c1)Oc1cc(NC(=O)[C@H](C)NC(=O)CNC(=O)[C@H](Cc3ccccc3)NC(=O)CN)ccc1C21OC(=O)c2ccccc21 [GFGA, (Gly-Phe-Gly-Ala)2 Rho 110] (I: H-GFGA / II: H-GFGA; linker I:C-II:C via Rhodamine110)",1.40,
"NCC(=O)Nc1ccc2c(c1)Oc1cc(NC(=O)CN)ccc1C21OC(=O)c2ccccc21 [GLY, (Gly)2 Rho 110]",0.16,0.35
"C[C@H](NC(=O)[C@@H](N)CCCCN)C(=O)Nc1ccc2c(c1)Oc1cc(NC(=O)[C@H](C)NC(=O)[C@@H](N)CCCCN)ccc1C21OC(=O)c2ccccc21 [KA, (Lys-Ala)2 Rho 110]",0.07,0.25
"CC(C)C[C@H](N)C(=O)Nc1ccc2c(c1)Oc1cc(NC(=O)[C@@H](N)CC(C)C)ccc1C21OC(=O)c2ccccc21 [LEU, (Leu)2 Rho 110]",0.72,0.65
"N=C(N)NCCC[C@H](N)C(=O)NCC(=O)N[C@@H](CCC(=O)O)C(=O)N[C@@H](CO)C(=O)Nc1ccc2c(c1)Oc1cc(NC(=O)[C@H](CO)NC(=O)[C@H](CCC(=O)O)NC(=O)CNC(=O)[C@@H](N)CCCNC(=N)N)ccc1C21OC(=O)c2ccccc21 (stereo partly drawn) [RGES, (Arg-Gly-Glu-Ser)2 Rho 110] (I: H-RGES / II: H-RGES; linker I:C-II:C via Rhodamine110)",,0.61
"CC(C)[C@H](N)C(=O)N[C@@H](CCCCN)C(=O)Nc1ccc2c(c1)Oc1cc(NC(=O)[C@H](CCCCN)NC(=O)[C@@H](N)C(C)C)ccc1C21OC(=O)c2ccccc21 [VK-M, (Val-Lys)2 Rho 110 (modified)]",,1.87
"O=C(NCC(=O)N1CCC[C@H]1C(=O)Nc1ccc2c(c1)Oc1cc(NC(=O)[C@@H]3CCCN3C(=O)CNC(=O)OCc3ccccc3)ccc1C21OC(=O)c2ccccc21)OCc1ccccc1 [Z-GP, (carbobenzyloxycarbonyl-Gly-Pro)2 Rho 110]",,0.98
"O=C(NCC(=O)N1CCC[C@H]1C(=O)Nc1ccc2c(c1)Oc1cc(NC(=O)[C@@H]3CCCN3C(=O)CNC(=O)OCc3ccccc3)ccc1C21OC(=O)c2ccccc21)OCc1ccccc1 [Z-GP-M, (carbobenzyloxycarbonyl-Gly-Pro)2 Rho 110 (modified)]",,0.73

# From patent publication US5871946A, “Method for determining activity of enzymes in metabolically active whole cells” (priority 1995, dated 1999)
